{"source": "paper PMC10801772", "about": "(The Journal of Pharmacology and Experimental Therapeutics, 2024)", "origin": "cited, not measured here", "key": {"[1]": {"conditions": "ref Pubchem (https://pubchem.ncbi.nlm.nih.gov); cited from earlier work"}, "[2]": {"conditions": "ref Chemicalbook (https://www.chemicalbook.com); cited from earlier work"}}}
{"smiles": "Nc1ccnc(N)c1", "note": "[2,4-DAP, 2,4-diaminopyridine]", "values": [{"measurement": "logP", "setting": "[1]", "result": -0.2}, {"measurement": "pKa", "setting": "[2]", "result": 9.41}]}
{"smiles": "Nc1ccnc(F)c1", "note": "[2F-4AP, 4-amino-2-fluoropyridine]", "values": [{"measurement": "logP", "setting": "[1]", "result": 0.6}, {"measurement": "pKa", "setting": "[2]", "result": 3.76}]}
{"smiles": "Nc1cncc(N)c1N", "note": "[3,4,5-TAP, 3,4,5-triaminopyridine]", "values": [{"measurement": "logP", "setting": "[1]", "result": -1.2}, {"measurement": "pKa", "setting": "[2]", "result": 9.08}]}
{"smiles": "Nc1ccncc1N", "note": "[3,4-DAP, 3,4-diaminopyridine]", "values": [{"measurement": "logP", "setting": "[1]", "result": -0.5}, {"measurement": "pKa", "setting": "[2]", "result": 9.17}]}
{"smiles": "[2H]c1nc([2H])c(N)c(N)c1[2H]", "note": "[3,4-DAP-d3, 3,4-diaminopyridine-d3]", "values": [{"measurement": "logP", "setting": "[1]", "result": -0.5}]}
{"smiles": "Nc1c(F)cncc1F", "note": "[3,5DF-4AP, 4-amino-3,5-difluoropyridine]", "values": [{"measurement": "logP", "setting": "[1]", "result": 0.4}, {"measurement": "pKa", "setting": "[2]", "result": 5.12}]}
{"smiles": "Nc1ccncc1F", "note": "[3F-4AP, 4-amino-3-fluoropyridine]", "values": [{"measurement": "logP", "setting": "[1]", "result": 0.3}, {"measurement": "pKa", "setting": "[2]", "result": 7.19}]}
{"smiles": "Cc1cnccc1N", "note": "[3Me-4AP, 3-methyl-4-aminopyridine]", "values": [{"measurement": "logP", "setting": "[1]", "result": 0.5}, {"measurement": "pKa", "setting": "[2]", "result": 9.43}]}
{"smiles": "Nc1ccncc1", "note": "[4-AP, 4-aminopyridine]", "values": [{"measurement": "logP", "setting": "[1]", "result": 0.3}, {"measurement": "pKa", "setting": "[2]", "result": 9.17}]}
{"smiles": "[2H]c1nc([2H])c([2H])c(N)c1[2H]", "note": "[4-AP-d4, 4-aminopyridine-d4]", "values": [{"measurement": "logP", "setting": "[1]", "result": 0.3}]}
